Experimental data from PubChem BioAssay AID1347120 (National Center for Advancing Translational Sciences (NCATS), 2019).
The campaign covered roughly 390,000 compounds. About 930 (0.24%) were called active. Inconclusive means that the source gave no clear call. Such entries were picked first, then a sample of the others. The call rests on the fitted dose curve; in most records, active means well fitted activation curve with a large enough effect; inconclusive means small, poorly fitted or top-dose-only effect; inactive means no such curve, though single readings can be large or run the other way. A potency beside an inconclusive call is a rough fit, not a confirmed value.

assay: qHTS for Suppressors of FUS Proteinopathy: Primary screen using FUS-linked yeast assay; further: nearly all actives have a fitted effect of over 55% in size;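 on growth rescue (activation): plate controls were DMSO vehicle for no effect and reference control for full effect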; details: S. cerevisiae FUS-expressing, OD600, 24 h; Potency: growth rescue; growth rescue (activation): at 76.6 µM (top of the series)
Summary of the method: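 Read-out: OD at 600 nm after 24hr at 30C, reporting rescue of FUS-induced yeast toxicity. Cells at OD 0.005 in galactose (2%) minimal medium; compounds tested in a dilution series; CP55940 titration from 92uM final as control.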
Potency means the concentration at half of the fitted maximal effect; tags describe the fitted curve by direction and shape.

Which Potency does the source give for `CCCC1=C(C(=O)OCC)C(c2cc(Cl)cc(OC)c2OCC(=O)OCC)NC(=O)N1` (centres undefined) here?
The Potency was inconclusive: 14.1 µM [activator, partial curve, poor fit].

For `C#CCSc1nc2sc3c(c2c(=O)n1-c1cccc(OC)c1)CCN(C(C)=O)C3`, which Potency is on record?
Its Potency is inconclusive: 28.2 µM [activator, partial curve, poor fit].

With `CC(C(=O)NCc1ccc2c(c1)OCO2)c1ccc([N+](=O)[O-])cc1` (centres undefined) as the compound, how does the “growth rescue (activation)” value read?
Its value is inactive: -4.88%.

Which Potency does the source give for `COc1ccccc1S(=O)(=O)n1cc(Cc2ccccc2)c(N)n1` here?
The Potency was inconclusive: 20 µM [activator, partial curve, poor fit].

Which Potency does the source give for `CCOc1ccc(/C(O)=C2/C(=O)C(=O)N(c3cc(C)on3)C2c2ccc(C(=O)OC)cc2)cc1` (centres undefined) here?
The Potency was inconclusive: 11.2 µM [activator, single point].

For `CCn1c(/C=C/c2ccc([N+](=O)[O-])o2)nc2ccccc2c1=O`, which Potency is on record?
Its Potency is inconclusive: 39.8 µM [activator, single point].

Which Potency does the source give for `CCCCc1c(O)nc(SCC(=O)Nc2ccc(OC)cc2)n(-c2ccc(C)c(C)c2)c1=O` here?
Its Potency is inconclusive: 22.4 µM [activator, partial curve].

For `CCc1nn2c(-c3ccco3)ccnc2c1-c1ccc(F)cc1`, which “growth rescue (activation)” value is on record?
Its value is inactive: 9.92%.

With `CC(=O)Nc1ccc(S(=O)(=O)N2CCN(c3cc4c(cc3[N+](=O)[O-])n(C)c(=O)n4C)CC2)cc1` as the compound, how does the Potency read?
The Potency was inconclusive: 39.8 µM [activator, single point].

Which Potency does the source give for `CCCCNc1c(-c2ccc(SC3CCCCC3)cc2)nc2ccccn12` here?
Its Potency is inconclusive: 35.5 µM [activator, single point].

For `C#CCN(C[C@@H]1[C@@H](OC(=O)NCc2ccco2)[C@@H](OC(=O)NCc2ccco2)Cn2c(=O)ccc(=O)n21)S(=O)(=O)c1ccc(C)cc1`, which Potency is on record?
Its Potency is inconclusive: 50.1 µM [activator, single point].

With `Cc1ccn2cc(-c3nonc3C)cc2c1` as the compound, how does the Potency read?
The Potency was inconclusive: 6.31 µM [activator, full curve, poor fit].

Which Potency does the source give for `Cc1cc(=O)[nH]c(Nc2ccc(C(=O)OC(C)C)cc2)n1` here?
The Potency was inconclusive: 12.6 µM [activator, partial curve].

With `CCCCCCCCN1C(=O)[C@H](CC(=O)N2CCN(C(=O)c3ccco3)CC2)C[C@@]2(C(=O)OC)CCCCC=C12` as the compound, how does the Potency read?
Its Potency is inconclusive: 39.8 µM [activator, single point].

With `COc1ccc(NC(=O)Cn2c(=O)n(-c3cccc(C)c3)c(=O)c3c2c2cc(C)ccc2n3C)cc1OC` as the compound, how does the “growth rescue (activation)” value read?
Its value is inactive: 1.44%.

With `CC1CCCN(C(=S)Nc2ccc(Nc3ccccc3)cc2)C1` (centres undefined) as the compound, how does the Potency read?
The Potency was inconclusive: 10 µM [activator, partial curve, poor fit].

Which Potency does the source give for `Cc1cccc(N2CCN(C(=O)c3cccc(N4C(=O)C5CC=CC(C)C5C4=O)c3)CC2)c1C` (centres undefined) here?
The Potency was inconclusive: 22.4 µM [activator, single point].

With `CC(C)Cc1nc(N2CCN(C(=O)C(C)C)CC2)c(C#N)c2c1CCC2` as the compound, how does the “growth rescue (activation)” value read?
The value was inactive: 32.6%.

Which Potency does the source give for `Cc1sc(C2C(C#N)=C(N)N(c3cccc(Cl)c3)C3=C2C(=O)CCC3)cc1CN1CCOCC1` (centres undefined) here?
Its Potency is inconclusive: 35.5 µM [activator, single point].

Which Potency does the source give for `CCOc1ccc(CCN2C(=O)C(=O)N([C@@H](Cc3ccccc3)CN3CCC[C@H]3CN3C(=O)C(=O)NC[C@@H]3Cc3ccccc3)C[C@@H]2Cc2ccc(O)cc2)cc1` here?
The Potency was active: 15.8 µM.

Which “growth rescue (activation)” value does the source give for `Cc1ccc(NS(=O)(=O)c2c(C)ccc3nsnc23)c([N+](=O)[O-])c1` here?
Its value is inactive: -20.7%.

Which Potency does the source give for `O=C(CSc1nnc(CNC(=O)c2ccccc2)o1)Nc1nccs1` here?
The Potency was inconclusive: 50.1 µM [activator, single point].

For `COc1cc(-c2cnc3c(NC=O)cc(-c4ccc(S(C)(=O)=O)cc4)cn23)cc(OC)c1OC`, which Potency is on record?
Its Potency is inconclusive: 35.5 µM [activator, single point].

Which Potency does the source give for `Cc1ccc2nc(-c3ccc(NC(=O)CSc4nnc(-c5cccc(Cl)c5)n4Cc4ccco4)cc3)sc2c1` here?
Its Potency is inconclusive: 20 µM [activator, partial curve, poor fit].

Which “growth rescue (activation)” value does the source give for `CCOC(=O)N1CCN(C(=O)c2cccn3c(=O)c4cc(Br)ccc4nc23)CC1` here?
Its value is inactive: -1.48%.

With `CC(=NCc1ccccc1)c1ccc(O)cc1O` as the compound, how does the “growth rescue (activation)” value read?
Its value is inactive: 9.18%.

For `CC(C)(C)N1C(=O)[C@H]2[C@@H](c3ccc(Br)cc3)N3C(=O)N(c4cccc(F)c4)C(=O)[C@@]3(C)[C@H]2C1=O`, which Potency is on record?
The Potency was inconclusive: 10 µM [activator, partial curve, poor fit].

For `CC1O[C@@H](OC2C(O)C(C)O[C@H](OC(=O)[C@]34CCC(C)(C)C[C@H]3C3=CCC5[C@@]6(C)CC(O)C(O[C@@H]7OC(CO)C(O)[C@@H](O)[C@@H]7O)[C@@](C)(C(=O)O)C6CC[C@@]5(C)[C@]3(CO)CC4)C2O[C@H]2OC(C)[C@@H](O[C@@H]3OCC(O[C@@H]4OC(CO)C(O)[C@H](O)C4O)[C@@H](O)[C@@H]3O)[C@H](O)C2O)C(O)C(O)C1O` (some centres undefined), which Potency is on record?
The Potency was inconclusive: 12.6 µM [activator, partial curve, poor fit].

Which “growth rescue (activation)” value does the source give for `COC(=O)c1ccc(COc2ccc(CNCc3ccc(Cl)cc3)cc2)cc1` here?
Its value is inactive: 16%.

For `CCOC(=O)c1c[nH]c(=S)n1C`, which “growth rescue (activation)” value is on record?
Its value is inactive: -22.7%.

With `COc1ccc(S(=O)(=O)N(CCc2ccccc2)CC(=O)Nc2ccc(C)c(C)c2)cc1OC` as the compound, how does the Potency read?
The Potency was inconclusive: 44.7 µM [activator, single point].

For `Cc1cccc(N2CCN(C(=O)C3CC(=O)N(c4ccc5c(c4)OCCO5)C3)CC2C)c1` (centres undefined), which Potency is on record?
The Potency was inconclusive: 28.2 µM [activator, partial curve].

Which Potency does the source give for `Cc1ccc(S(=O)(=O)N2CCC(=O)N(C(COCc3cccc(C)c3)C(C)C)CC2)cc1` (centres undefined) here?
The Potency was inconclusive: 25.1 µM [activator, single point].

Which Potency does the source give for `CCc1nc2ccc(C(=O)N3CCN(c4ccccc4)CC3)cc2nc1CC` here?
The Potency was inconclusive: 31.6 µM [activator, single point].

For `Cc1ccc(C)n1Cc1ccc(C(=O)O)cc1`, which Potency is on record?
Its Potency is inconclusive: 35.5 µM [activator, single point].

Which Potency does the source give for `O=C(CN1C(=O)/C(=C2/SC(=S)N(CCS(=O)(=O)O)C2=O)c2ccccc21)Nc1cccc(Br)c1` here?
Its Potency is inconclusive: 50.1 µM [activator, partial curve, poor fit].

Which Potency does the source give for `CCCCn1c(N)c(N(CC(C)C)C(=O)c2ccc(Cl)c(S(=O)(=O)N3CCCC3)c2)c(=O)[nH]c1=O` here?
Its Potency is active: 31.6 µM.

Which “growth rescue (activation)” value does the source give for `O=c1cc(COn2nnc3ccc(C(F)(F)F)cc32)nc2sccn12` here?
Its value is inactive: 0.848%.

Which Potency does the source give for `CCOC(=O)N1CCc2c(sc(NCc3cccc(F)c3)c2C(=O)Nc2ccccc2OCC)C1` here?
The Potency was inconclusive: 50.1 µM [activator, single point].

With `CCOC(=O)c1cccc(NC(=O)CCc2c(C)nc3ncnn3c2C)c1` as the compound, how does the Potency read?
The Potency was inconclusive: 25.1 µM [activator, partial curve, poor fit].

With `NC(=O)c1nsc(C(=O)N(CC(=O)NC2CCCCC2)c2cccc(F)c2)c1N` as the compound, how does the Potency read?
Its Potency is inconclusive: 50.1 µM [activator, single point].

For `CCN(CC)c1ccc(/C=N/NC(=S)NCc2ccccc2)cc1`, which Potency is on record?
The Potency was inconclusive: 28.2 µM [activator, partial curve, poor fit].

Which “growth rescue (activation)” value does the source give for `c1ccc(CSc2nnc(-c3cccs3)n2Cc2ccco2)cc1` here?
The value was inactive: 23.3%.

Which Potency does the source give for `CCc1ccc(OC(C)C(=O)N2CCC(c3nc4ccccc4s3)CC2)cc1` (centres undefined) here?
The Potency was inconclusive: 50.1 µM [activator, single point].

Which Potency does the source give for `CCn1cc(C(=O)N2CCN(c3cccc(C(F)(F)F)c3)CC2)c2cc(OC)c(OC)cc2c1=O` here?
Its Potency is inconclusive: 31.6 µM [activator, single point].

With `CCCC(=O)N1CCC1(C)C(=O)Nc1ncc(C(=O)OC)s1` (centres undefined) as the compound, how does the Potency read?
Its Potency is inconclusive: 8.91 µM [activator, partial curve].

For `CCOc1ccc(CCNC(=O)c2cc3sccc3n2Cc2cccc(C)c2)cc1OCC`, which “growth rescue (activation)” value is on record?
Its value is inactive: -4.41%.

With `CCOC(=O)N1CCC(n2c(SCC(=O)N3CCC(C)CC3)nc3ccccc3c2=O)CC1` as the compound, how does the Potency read?
Its Potency is inconclusive: 31.6 µM [activator, single point].

For `CCCCCOc1ccc(NC2=CC(=O)CCC2)cc1`, which Potency is on record?
Its Potency is inconclusive: 50.1 µM [activator, single point].

Which Potency does the source give for `COC(=O)[C@]12CCCCC=C1N(Cc1ccc(Cl)cc1Cl)C(=O)[C@H](CC(=O)NCc1ccccc1)C2` here?
Its Potency is inconclusive: 39.8 µM [activator, single point].

For `Cc1ccc(OCC(=O)N/N=C/C=C/c2ccco2)c(Br)c1`, which Potency is on record?
The Potency was inconclusive: 17.8 µM [activator, partial curve, poor fit].

For `CCN=c1scc(-c2ccc3c(c2)NC(=O)CO3)n1N=C1CCCC1`, which Potency is on record?
Its Potency is inconclusive: 28.2 µM [activator, partial curve, poor fit].

For `COc1ccc(N2CC(NC(=O)COc3ccccc3)CC2=O)cc1OC` (centres undefined), which “growth rescue (activation)” value is on record?
Its value is inactive: -12.4%.

Which Potency does the source give for `CC(C)(C)OC(=O)CNC(=O)c1[nH]cnc1C(=O)N[C@@H](CCCCNC(=O)OC(C)(C)C)C(=O)OC(C)(C)C` here?
The Potency was inconclusive: 39.8 µM [activator, partial curve, poor fit].

Which Potency does the source give for `COc1ccc(OC)c(-c2csc(NC(=O)c3ccc(F)cc3)n2)c1` here?
The Potency was inconclusive: 0.891 µM [activator, full curve, poor fit].

Which “growth rescue (activation)” value does the source give for `O=C(Nc1ccc(N2CCN(C(=O)c3ccc(Cl)cc3)CC2)cc1)c1cccs1` here?
Its value is inactive: -10.9%.

Which “growth rescue (activation)” value does the source give for `COc1ccc(NC(=O)CCn2cc(C)c3ccccc32)cc1` here?
Its value is inactive: 5.84%.

For `N#Cc1ccc(C(=O)NC(=S)NC2CCCCC2)cc1`, which “growth rescue (activation)” value is on record?
The value was inactive: 6.7%.

With `CCOC(=O)N1CCN(C(=O)c2ccc3c(=O)n(CCC4=CCCCC4)c(=O)[nH]c3c2)CC1` as the compound, how does the Potency read?
Its Potency is inconclusive: 11.2 µM [activator, partial curve].
